Test results taken from PMC4336329 (PLoS ONE, 2015).
The whole screen tested about 310,000 compounds, of which about 14,000 (4.5%) showed an effect of 50% or more. The effect is printed as a negative number. The list shows a part of the results.

Target: human ether-à-go-go-related gene (hERG) potassium channel (human, UniProt Q12809)
Test: primary screen, population patch clamp on CHO cells stably expressing hERG
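Also: peak tail current of the secondary pulse compared with the same well before compound.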

Sequence of human ether-à-go-go-related gene (hERG) potassium channel (Q12809 whole entry, looked up): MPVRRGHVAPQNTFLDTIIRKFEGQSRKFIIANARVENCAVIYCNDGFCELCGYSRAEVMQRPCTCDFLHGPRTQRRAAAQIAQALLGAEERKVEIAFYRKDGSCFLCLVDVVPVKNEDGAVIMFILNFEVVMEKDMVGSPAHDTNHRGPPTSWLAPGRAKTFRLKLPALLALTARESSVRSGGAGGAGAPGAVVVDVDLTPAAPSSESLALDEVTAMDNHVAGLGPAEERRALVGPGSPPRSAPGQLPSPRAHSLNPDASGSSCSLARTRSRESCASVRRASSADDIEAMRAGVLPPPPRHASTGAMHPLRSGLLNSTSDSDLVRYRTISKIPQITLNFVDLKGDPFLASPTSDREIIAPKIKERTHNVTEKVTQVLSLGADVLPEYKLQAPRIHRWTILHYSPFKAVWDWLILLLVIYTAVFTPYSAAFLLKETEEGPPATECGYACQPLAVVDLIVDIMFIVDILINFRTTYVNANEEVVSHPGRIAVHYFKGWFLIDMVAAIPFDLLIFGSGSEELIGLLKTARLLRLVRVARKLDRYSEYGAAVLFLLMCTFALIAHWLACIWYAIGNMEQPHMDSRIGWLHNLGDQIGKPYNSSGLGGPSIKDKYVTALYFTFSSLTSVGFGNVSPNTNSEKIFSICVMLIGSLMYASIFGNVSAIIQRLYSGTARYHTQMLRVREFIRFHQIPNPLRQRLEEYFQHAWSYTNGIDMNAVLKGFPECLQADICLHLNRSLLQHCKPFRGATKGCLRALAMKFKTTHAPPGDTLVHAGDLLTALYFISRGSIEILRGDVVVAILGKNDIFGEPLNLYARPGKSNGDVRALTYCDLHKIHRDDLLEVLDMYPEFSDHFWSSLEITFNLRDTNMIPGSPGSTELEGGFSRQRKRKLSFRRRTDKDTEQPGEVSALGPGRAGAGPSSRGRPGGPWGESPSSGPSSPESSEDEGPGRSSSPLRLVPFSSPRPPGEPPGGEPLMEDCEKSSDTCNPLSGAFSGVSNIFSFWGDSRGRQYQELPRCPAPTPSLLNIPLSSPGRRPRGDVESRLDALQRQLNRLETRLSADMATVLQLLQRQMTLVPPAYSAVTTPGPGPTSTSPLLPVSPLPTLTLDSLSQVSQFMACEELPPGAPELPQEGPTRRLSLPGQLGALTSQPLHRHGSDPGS

Compound | hERG current change (%, negative = inhibition) at 10uM [%]
O=C1N[C@@H](Cc2ccccc2)C(=O)N2[C@@H]3N(S(=O)(=O)c4ccccc4)c4ccccc4[C@]3(Br)C[C@@H]12 | -13.3
O=C(COC(=O)c1nc(Cl)ccc1Cl)Nc1ncc(Cl)cc1Cl | 19.2
COc1ccc(-c2noc(-c3cccnc3)n2)cc1OC | -4.23
COc1cc2[nH]c(=O)c(C(=O)NCc3ccc(F)cc3)c(O)c2cc1OC | 7.75
O=C(CNC(=O)c1cccs1)Nc1ncccc1O | 7.91
Cc1nc(N(C)Cc2ccccc2)c2nnn(Cc3ccccc3)c2n1 | -37.9
CC(=O)Nc1ccc(Cl)cc1C(=O)O | 5.96
COc1ccc(CN(CC2CCCO2)C(=O)CN2C(=O)COc3ccccc32)cc1OC (centres unmarked) | -15.8
CCN(CC)CCOC(=O)c1cccc2c1-c1ccccc1C2O.Cl (centres unmarked) | -18.8
CCCCNC(=O)NC12CC3CC(CC(C3)C1)C2 | 6.46
Cc1nn(-c2ccccc2)c(C)c1C(=O)NCc1cccs1 | 10.4
O=S(=O)(c1cccc2cccnc12)N1CCCCC1 | 4.58
CCN(CC)CCCCOc1ccccc1OC | -11.6
Cn1nnnc1SCC(=O)N1CCc2ccccc21 | 2.62
CC(C)(C)NC(=O)NC(=O)COC(=O)c1cccc(NS(=O)(=O)c2ccc(F)c(F)c2)c1 | -7.24
CCC(C)(C(=O)NC1CCCC1)N(C(=O)Cc1cccs1)c1c(C)n(C)n(-c2ccccc2)c1=O (centres unmarked) | 2
O=C(CCC(=O)N1CCSc2ccccc21)Nc1ccc(F)cc1 | -4.12
Cc1ccc(N(CC(=O)O)S(=O)(=O)c2cccc3nonc23)cc1 | 21
COc1ccc2ccccc2c1/C=N\n1c(C)cc(C)c(C(N)=O)c1=O | 1.44
CCOC(=O)C1CCN(Cc2ccc(N(C)C)cc2)CC1 | -8.06
CC1Cc2ccccc2C(CCc2ccccc2)=N1.Cl (centres unmarked) | -9.14
Cc1cc(Cl)ccc1OCC(=O)N1CCCN(C(=O)COc2ccc(Cl)cc2C)CC1 | -58.5

Compound | hERG current change (%, negative = inhibition) at 10uM [%]
Cl.Nc1nc(N2CCN(C(=O)c3ccco3)CC2)nc2ccccc12 | -49.4
CCOc1ccc(Nc2nc3cc(S(=O)(=O)CC)ccc3o2)cc1 | -1.86
O=C(NNC(=S)NC1CCCCC1)c1ccccc1Cl | 9.05
CC1CCCN(CCCNC(=O)c2coc3nc4ccccc4nc23)C1 (centres unmarked) | -5.67
Cc1c(C(=O)N/N=C/c2c(O)ccc3ccccc23)nnn1-c1nonc1N | 27.5
COc1ccc(C2CC(C(F)(F)F)n3nc(C(=O)NCCCn4ccnc4)cc3N2)cc1OC (centres unmarked) | -4.72
COc1cc(NC(=O)CN2CCN(S(=O)(=O)/C=C/c3ccccc3)CC2)cc(OC)c1OC | -14.8
CC(C)NC(=S)Nc1ccc2[nH]c(=O)[nH]c2c1 | 10.8
CCOc1ccnc2c1c(=O)n(Cc1cc(OC)cc(OC)c1)c(=O)n2C | -2.37
CCSc1nsc(SCC)c1C(N)=O | 7.66
Cc1c(NC(=O)COc2ccc(C(C)C)cc2)c(=O)n(-c2ccccc2)n1C | -46.8
Cc1ccc(CNC(=O)/C=C/c2cccs2)cc1 | -14.8
Cc1cccc(OCC(=O)Nc2cc(Cl)ccc2-n2cncn2)c1C | -3.83
Cc1c(C(=O)NC(=S)NCc2cccnc2)oc2ccccc12 | -6.6
CCc1ccc2c(CN(CC)Cc3nc4ccccc4c(=O)[nH]3)cc(=O)oc2c1 | -71.6
CCN1CCCC1CNC(=O)c1cc(OC)c(OC)c(OC)c1 (centres unmarked) | 12.8
Cc1ccc(N(C(=O)c2snc(C(N)=O)c2N)C(C(=O)NCC2CCCO2)c2ccc(C)o2)c(C)c1 (centres unmarked) | -40.9
CCOc1ccc2[nH]c(=O)c(CN(CCO)C(=O)CC)cc2c1 | 22.8
CN(CC(=O)Nc1ccc(Cl)c(C(F)(F)F)c1)C(=O)c1cccs1 | 6.98
CCOc1nc2cnccc2n(CC(=O)Nc2ccccc2F)c1=O | 26.4
CCOc1ccc(Cc2c(Cl)nc(SC)nc2OC)cc1 | 2.63
COc1ccc(Cc2nnc(NC(=O)c3ccc(F)cc3)s2)cc1OC | 18.1
